# Reference: PubChem BioAssay AID624202 (National Center for Advancing Translational Sciences (NCATS), 2012)
# Several values for one entry are separate records, joined by “and”; a condition that tells them apart may be missing. Identical values can stand only once. The campaign covered roughly 380,000 compounds. About 4,000 (1.1%) were called active. Inconclusive means that the source gave no clear call. Such entries were picked first, then a sample of the others. Calls follow the shape of the dose curve; as a rule, active = well fitted activation curve with a large enough effect; inconclusive = small, poorly fitted or top-dose-only effect; inactive = no such curve, though single readings can be large or run the other way. Where the call is inconclusive, the potency comes from a doubtful curve fit.
# Experiment: qHTS Assay to Identify Small Molecule Activators of BRCA1 Expression; also: nearly all actives have a fitted effect of over 80% in size
# Conditions: MCF7-BRCA1-FFLuc reporter, luminescence, 48 h; activation: at 46.1 µM (top of the series), scaled: vehicle 0%, 10 µM genistein 100%
# Excerpt: Functionally, BRCA1 has been implicated in a wide array of cellular activities, including DNA damage repair, cell-cycle checkpoint control, growth inhibition, apoptosis, transcriptional regulation, chromatin remodeling, protein ubiquitylation, and mammary stem cell self-renewal and differentiation. Reduction in BRCA1 levels is associated with an increase in tumor growth and resistance to anti-estrogenic agents, such as tamoxifen, while an increase in BRCA1 expression leads to cell growth arrest and apoptosis. […] The frequent loss of BRCA1 expression in invasive breast cancers in the absence of somatic mutation has been attributed to numerous mechanisms, including hypermethylation of the BRCA1 promoter, exaggerated ubiquitylation of BRCA1 protein, and improper intracellular localization. […] Basal-like breast cancers (BLBCs) are associated with an aggressive clinical course, resistance to chemotherapy, and typically lack expression of estrogen receptor (ER), progesterone receptor (PR), and epidermal growth factor receptor 2 (HER2). BLBCs account for 10-17% of all breast cancers, have few therapeutic options, and are considered the biggest unmet need in the treatment of breast cancer. Conversely, tumors which maintain expression of functional BRCA1 are almost uniformly luminal type cancers, and are accordingly associated with more indolent clinical courses, responsiveness to endocrine therapies, and improved survival.
# As such, it is possible that an increase in BRCA1 expression would enable cellular differentiation and restore tumor suppressor function, resulting in delayed tumor growth and less aggressive, more treatable breast cancers. The long term goal of this proposal is to develop a novel prevention or therapeutic agent for breast cancer patients. To accomplish this goal, the overall objective of this proposal is to access the resources provided by the NIH Molecular Libraries Roadmap Initiative and the Molecular Libraries Probe Production Centers Network (MLPCN) to discover and develop new chemical activator probes that will increase BRCA1 expression and function.
# NIH Molecular Libraries Probe Production Network [MLPCN]
# NIH Chemical Genomics Center [NCGC]
# PI Name: Lisa Harlan-Williams, University of Kansas Medical Center
# 5microl of MCF7-BRCA1-FFLuc cell suspension (400 cells/microl in phenol-red free MEM) are dispensed into Greiner white solid bottom 1536-well assay plates, yielding a final well density of 2000 cells/well. Plates are incubated for 2 hours at 37 degrees C in 5% humidified CO2 to allow cell attachment. Compounds are then transferred via Kalypsys pin tool equipped with 1536-pin array (10nl slotted pins, V&P Scientific, San Diego, CA). The plates are then incubated at 37 degrees C in 5% humidified CO2 for 48 hours. The NCGC in-house luciferase substrate reagent, Buglite, is then added (2.5microl) and plates incubated for 15 minutes, before being transferred to a ViewLux high-throughput CCD imager (PerkinElmer) wherein single end-point measurements of luminescence are acquired using a clear filter. The positive control compound, genistein, will be pinned into dedicated control columns on each plate, including a 16-point 1:3 titration in duplicate, as well as a 10microM maximum activation control, allowing for the normalization of screening activity. DMSO will be pinned into a separate column as a negative control.
# All screening operations will be performed on a fully integrated robotic system (Kalypsys, San Diego, CA) containing one RX-130 and two RX-90 anthropomorphic robotic arms (Staubli, Duncan, SC). Library plates will be screened starting from the lowest and proceeding to the highest concentration. Vehicle-only plates, with DMSO being pin-transferred to columns 5-48, will be inserted uniformly at the beginning and the end of each library in order to monitor and record any shifts in the background, which can be affected by reagent dispensers or loss in enzyme activity over time. […]
# Potency is read from the fitted curve at half-maximal effect; tags tell the direction and shape of the fitted curve.
SMILES,Potency,activation
CNC(=O)COC(=O)c1ccc(-c2nc3ccccc3s2)s1,"inconclusive: 12.6 µM [activator, partial curve, poor fit]",–
CCN1CCN(/C=N/c2nc(C)cs2)CC1,"inconclusive: 15.8 µM [activator, partial curve, poor fit]",–
C=CCc1ccc(OC(=O)NC2CCCCC2)c(OC)c1,"inconclusive: 10 µM [activator, partial curve, poor fit]",–
Cc1nc(-c2ccc(Cl)cc2)sc1C1(C)CC(c2ccccc2)=NO1 (stereo not given),active: 11.2 µM,–
O=C(Oc1ccc(Cl)c2ccccc12)N1CCCCC1,"inconclusive: 35.5 µM [activator, single point]",–
Cc1cccc(OCC(=O)Oc2ccc(Cl)cc2)c1,"inconclusive: 2.51 µM [activator, partial curve, poor fit]",–
O=C1C(=O)N(c2ccccc2)P(=O)(N(CCCl)CCCl)N1c1ccccc1,"inconclusive: 0.891 µM [activator, full curve, poor fit]",–
COc1ccc(C2C=C(C)Nc3ncnn32)cc1 (stereo not given),"inconclusive: 15.8 µM [activator, partial curve, poor fit]",–
COc1cc2nc(N3CCCN(C)CC3)nc(N(C)C3CCN(C)CC3)c2cc1OC,inactive,–
COc1ccc(NC(=O)CCn2cc(C)c3ccccc32)cc1,"inconclusive: 35.5 µM [activator, single point]",–
Cc1cccc(OCCNc2ncccc2[N+](=O)[O-])c1,active: 11.2 µM,–
O=c1c2ccccc2c(C=Nc2ccc(O)cc2)c(O)n1Cc1ccccc1,"inconclusive: 12.6 µM [activator, partial curve, poor fit]",–
CC1=C/C(=N\NC(=S)NCCc2ccccc2)CC(C)(C)C1,active: 11.2 µM,–
CC(C)(C)c1ccc(C(=O)NCc2ccco2)cc1,"inconclusive: 14.1 µM [activator, partial curve, poor fit]",–
O=C(Nc1ccccc1)c1cc(C2CCCN(C(=O)C3CC3)C2)on1 (stereo not given),"inconclusive: 2.51 µM [activator, full curve, poor fit]",–
CCOC(=O)c1ccc(N2Cc3ccccc3C2=NC(=O)c2cccc([N+](=O)[O-])c2)cc1,active: 5.01 µM,–
O=c1c2cc(N3CCOCC3)ccc2[nH]c(=S)n1Cc1ccc(Cl)cc1,active: 11.2 µM,–
Cc1cc(N(C)C)ccc1N=Nc1ccc(N)cc1,"inconclusive: 1.58 µM [activator, partial curve, poor fit]",–
Cc1ccc(NC(=O)OC(C)CNC(=O)Oc2cccc(C)c2)cc1 (stereo not given),active: 11.2 µM,–
C/C(=N/O)c1ccc2ccc3ccccc3c2c1,"inconclusive: 2.82 µM [activator, full curve, poor fit]",–

SMILES,Potency,activation
C[C@H]1O[C@@H](O[C@H]2[C@@H](O)C[C@@H](O[C@H]3[C@@H](O)C[C@H](O[C@H]4CC[C@@]5(C)[C@H](CC[C@@H]6[C@@H]5CC[C@]5(C)[C@@H](C7=CC(=O)OC7)CC[C@]65O)C4)O[C@@H]3C)O[C@@H]2C)C[C@H](O)[C@@H]1O,–,inconclusive: -66.6% [activator]
COC(=O)[C@@H](NC(=O)c1cc(COc2cncc(Cl)c2)on1)c1ccccc1,"inconclusive: 35.5 µM [activator, single point]",–
c1csc(-c2nnc(COc3ccc4c(c3)OCO4)o2)c1,"inconclusive: 12.6 µM [activator, partial curve, poor fit]",–
Cc1ccc(N/N=C/C=C/c2ccco2)cc1,active: 7.94 µM,–
CCN(CC)C(=O)Oc1ccc2cc(Br)ccc2c1,"inconclusive: 17.8 µM [activator, single point]",–
CCOC(=O)c1ccc(COC(=O)c2ccc(-c3nnc(-c4ccccc4)o3)cc2)o1,"inconclusive: 1.41 µM [activator, full curve, poor fit]",–
O=C(Nc1ccc(Cl)cc1)N1CC1,"inconclusive: 31.6 µM [activator, single point]",–
C[C@H]1CCC/C=C/[C@@H]2C[C@H](O)C[C@H]2[C@H](O)/C=C/C(=O)O1,–,inconclusive: -77.7% [activator] and inconclusive: -77% [activator]
c1ccc(NC2=Nc3ccccc3CC2)cc1,"inconclusive: 8.91 µM [activator, partial curve, poor fit]",–
COc1cc(-c2coc3c(C(=O)NCc4ccncc4)cccc23)ccc1O,"inconclusive: 2 µM [activator, partial curve, poor fit]",–
c1ccc(-c2nnc(SCc3ccncc3)o2)cc1,"inconclusive: 35.5 µM [activator, single point]",–
O=S(=O)(O)C(=Cc1ccccc1)c1ccccc1 (tested in a mixture with another compound),"inconclusive: 10 µM [activator, partial curve, poor fit]",–
Cc1ccc(C(C#N)=Cc2ccc3c(c2)OCO3)cc1,"inconclusive: 2.51 µM [activator, partial curve, poor fit]",–
NNCc1ccccc1,"inconclusive: 3.98 µM [activator, partial curve, poor fit]",–
Cn1nnc2cc(NC(=O)Nc3cccc(Cl)c3)ccc21,"inconclusive: 1.26 µM [activator, full curve, poor fit]",–
C/C(=N\NC(=O)CN1CCCCC1)c1cccc([N+](=O)[O-])c1,"inconclusive: 11.2 µM [activator, partial curve, poor fit]",–
Cc1ccc(-n2c(=O)[nH]c3ccccc3c2=O)cc1[N+](=O)[O-],active: 11.2 µM,–
Cc1ccc(N2CCN(C(=O)c3cn(CC4CCCCC4)nn3)C(C)C2)cc1 (stereo not given),active: 2.51 µM,–
COc1ccc(NC2CC(=O)N(C(C)C)C2=O)cc1 (stereo not given),"inconclusive: 11.2 µM [activator, partial curve, poor fit]",–
COc1nc(NC2CCCCC2)nc(NC(C)(C)C)n1,"inconclusive: 7.08 µM [activator, partial curve, poor fit]",–
